Laboratory results taken from article PMC4336329 (PLoS ONE, 2015).
Hit rate of the full screen: of about 310,000 compounds, about 2,200 (0.71%) showed an effect of 50% or more. Effects have a minus sign here. The list shows a part of the results.

molecular target: human ether-à-go-go-related gene (hERG) potassium channel (human, UniProt Q12809); experiment: primary screen, population patch clamp on CHO cells stably expressing hERG
Sequence (Q12809 whole entry, looked up): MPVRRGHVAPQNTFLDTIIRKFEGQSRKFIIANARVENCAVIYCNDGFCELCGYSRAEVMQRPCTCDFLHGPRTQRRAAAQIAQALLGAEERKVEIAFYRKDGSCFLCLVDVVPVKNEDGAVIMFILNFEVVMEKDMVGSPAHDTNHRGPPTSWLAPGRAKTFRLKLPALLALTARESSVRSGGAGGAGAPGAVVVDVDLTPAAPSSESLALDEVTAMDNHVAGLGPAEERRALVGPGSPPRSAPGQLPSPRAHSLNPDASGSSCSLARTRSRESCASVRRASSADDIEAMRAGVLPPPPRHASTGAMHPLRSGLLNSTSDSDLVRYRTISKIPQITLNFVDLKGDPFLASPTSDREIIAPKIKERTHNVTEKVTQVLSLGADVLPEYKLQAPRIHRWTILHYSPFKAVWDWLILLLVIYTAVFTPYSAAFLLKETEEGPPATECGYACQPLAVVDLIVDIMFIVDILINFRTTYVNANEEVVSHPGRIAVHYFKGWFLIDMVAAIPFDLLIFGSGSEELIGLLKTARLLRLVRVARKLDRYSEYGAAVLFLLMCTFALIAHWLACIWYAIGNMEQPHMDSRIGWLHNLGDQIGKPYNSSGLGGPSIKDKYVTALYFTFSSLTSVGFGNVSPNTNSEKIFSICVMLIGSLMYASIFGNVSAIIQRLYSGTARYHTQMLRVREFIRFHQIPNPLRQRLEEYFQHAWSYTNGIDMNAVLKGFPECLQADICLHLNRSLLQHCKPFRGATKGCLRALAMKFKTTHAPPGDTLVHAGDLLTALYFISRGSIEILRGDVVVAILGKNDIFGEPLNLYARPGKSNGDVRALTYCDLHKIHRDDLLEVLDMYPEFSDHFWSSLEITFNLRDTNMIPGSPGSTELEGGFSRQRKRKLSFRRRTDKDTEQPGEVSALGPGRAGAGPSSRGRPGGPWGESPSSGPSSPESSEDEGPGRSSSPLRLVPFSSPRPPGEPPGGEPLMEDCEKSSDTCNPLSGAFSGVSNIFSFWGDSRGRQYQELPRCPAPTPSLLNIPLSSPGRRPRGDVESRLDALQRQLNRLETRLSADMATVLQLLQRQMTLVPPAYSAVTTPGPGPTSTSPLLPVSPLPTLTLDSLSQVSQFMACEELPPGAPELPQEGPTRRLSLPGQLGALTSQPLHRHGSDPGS

Row | SMILES | hERG current change (%, negative = inhibition) at 1uM
1 | Cc1ccc(-n2c(=O)c3c(C)c(C)sc3n(Cc3cc(=O)n4ccccc4n3)c2=O)cc1C | 11.4%
2 | COc1cc2c(cc1OC)/C(=C/C(=O)c1ccc(C)cc1)NCC2 | 9.94%
3 | O=C(Cn1cc(S(=O)(=O)N2CCCC2)c(S(=O)(=O)N2CCCC2)c1)NCc1ccco1 | 11.2%
4 | Nc1nnc(SCC(=O)Nc2nccs2)s1 | 6.38%
5 | CC(C)(C)OC(=O)N1CCC(c2c(C(=O)NCC3CCN(C4CCCC4)C3)cnn2-c2ccccc2Cl)CC1 (centres unmarked) | 10.4%
6 | Cc1nn(CC(=O)Nc2cccnc2)c(=O)c2ccccc12 | -9.14%
7 | O=[N+]([O-])c1ccc(C2CCCC/C2=N/O)c([N+](=O)[O-])c1 (centres unmarked) | 7.37%
8 | O=C(NCC1CC1)c1cc(-c2ccccc2)nn1CC1CC(c2cccnc2)=NO1 (centres unmarked) | 5.05%
9 | COc1ccc(N(CC(=O)N/N=C(\C)CCc2ccccc2)S(=O)(=O)c2ccc(C)cc2)cc1 | -7.27%
10 | O=C(NCc1ccccc1)c1cccnc1N1CCOCC1 | 20.3%
11 | CC1(c2nnc(-c3ccccc3)o2)CC(c2ccncc2)=NO1 (centres unmarked) | 3.21%
12 | C=CCn1c(SCc2nc3cc(C(F)(F)F)ccc3c(=O)[nH]2)nc2sc(CC)cc2c1=O | 11.6%
13 | COc1ccc(NC(=O)COC(=O)Cc2ccc(-c3ccccc3)cc2)c(OC)c1 | 12.3%
14 | COc1cc(OC)cc(N2CCN(S(=O)(=O)c3ccc(-n4cnnn4)cc3)CC2)c1 | 15.8%
15 | Cc1ccc(/C(=N/Nc2nc3ccccc3s2)C2=C(O)c3ccccc3C2=O)cc1 | 10.5%
16 | Cc1ccc(N2CCN(S(=O)(=O)N3CCCCC3)CC2)cc1C | 17.8%
17 | CCN(c1ccccc1)S(=O)(=O)c1ccc(C(=O)Nc2nnc(-c3ccco3)o2)cc1 | 15.8%
18 | CCCCCNCC(=O)Nc1cccc(C(=O)Nc2cccc(C(F)(F)F)c2)c1 | -0.783%
19 | COc1ccc(CNC(NC(=O)c2ccccc2)(C(F)(F)F)C(F)(F)F)cc1 | 15.5%
20 | CC1(C)CN=C(NC2CCCCC2)S1 | 12.6%
21 | COc1ccc(S(=O)(=O)N(C)C2CCS(=O)(=O)C2)cc1OC (centres unmarked) | 11.7%
22 | COc1ccccc1N/C(=N/S(=O)(=O)c1ccc(Cl)cc1)c1ccccc1 | -5.77%
23 | O=C(CCc1c[nH]c2ccccc12)NCC(=O)Nc1ccc(F)c(F)c1F | 13.2%
24 | O=C(N/N=C/c1cccs1)c1cccc(S(=O)(=O)Nc2ccc(Cl)cc2)c1 | 17%
25 | C[C@@]12C(=O)Nc3cc(F)ccc3C(=O)N1[C@H]1c3ccccc3OC[C@@H]1[C@@H]2c1ccccc1 | 23.3%
26 | Cc1ccccc1N1CCN(C(=S)c2ccc([N+](=O)[O-])cc2)CC1 | -20.8%
27 | COc1cccc(N2CC(C(=O)Nc3nnc(SCC(=O)Nc4ccc(NC(C)=O)cc4)s3)CC2=O)c1 (centres unmarked) | 10%

Row | SMILES | hERG current change (%, negative = inhibition) at 1uM
28 | Cc1c(C)c2ccc(OCC(=O)N3CCN(c4cccc(Cl)c4)CC3)cc2oc1=O | 11.6%
29 | COc1ccccc1/C=C\C(=O)NCC(=O)N/N=C/c1ccc(O)cc1O | -0.0232%
30 | N#Cc1cccc(NC(=O)CN2C(=O)NC(Cc3ccccc3)C2=O)c1 (centres unmarked) | 8.48%
31 | O=C(CSc1cccc2cccnc12)N/N=C/c1ccncc1 | 5.31%
32 | Cc1cc(C)cc(N(C(=O)c2ccc(Br)o2)C2C=CS(=O)(=O)C2)c1 (centres unmarked) | -5.09%
33 | CCN(CC(=O)Nc1c(F)cccc1F)C(=O)C1CC(=O)N(c2ccc3c(c2)OCCO3)C1 (centres unmarked) | 7.95%
34 | Cc1nn(-c2ccccc2)c(N)c1N=Nc1cccc(S(=O)(=O)N2CCOCC2)c1 | 8.76%
35 | O=C(NNC(=O)C1CCCO1)c1ccc([N+](=O)[O-])cc1 (centres unmarked) | 6.63%
36 | C[C@H]1CCC[C@]2(O[C@@H](CCO)C[C@@H](O)[C@@H]2O)O1 | -0.525%
37 | O=C(C1CCCN1S(=O)(=O)c1cccc2nsnc12)N1CCCCC1 (centres unmarked) | 11.6%
38 | Cc1c(CN2CCC(CO)(CCOc3ccccc3)CC2)[nH]c2ccc(Cl)cc12 | -12.2%
39 | O=C(O)CC1(CC(=O)Nc2ccc(Oc3cccc(C(F)(F)F)c3)nc2)CCCC1 | 10.4%
40 | O=c1[nH]c2ccc(S(=O)(=O)N3CCN(c4ccccc4F)CC3)cc2s1 | -0.845%
41 | O=C(CS(=O)(=O)Cc1ccccc1)NCc1ccc2c(c1)OCO2 | -5.16%
42 | CCC(=O)N1CCN=C1SCc1ccccc1Cl | 14.3%
43 | COc1ccccc1-n1cnnc1SCC(=O)NC1CCS(=O)(=O)C1 (centres unmarked) | 16.6%
44 | Cc1cc(OCc2nnc(SCC(=O)O)n2-c2ccccc2)ccc1Cl | 11.7%
45 | O=C(Cc1ccc(F)cc1)NC1CCCC1 | 0.718%
46 | O=C(Nc1ccccc1F)n1ncc2cc(Cl)ccc21 | 13.9%
47 | COc1ccc(Cn2c(C)nnc2-c2cnn(C)c2N)cc1 | 9.29%
48 | CC1CCN(S(=O)(=O)c2ccc(Cl)cc2)CC1 | 5.86%
49 | CCOC(=O)Cc1cc(=O)c2c(=O)n(-c3ccccc3)[nH]c2[nH]1 | 6.6%
50 | C=CCn1c(N)cc(=O)nc1SCC(=O)N1CCN(c2ccc(F)cc2)CC1 | 13.1%
51 | Cc1ccc(/C=N/NC(=O)c2nnn(-c3nonc3N)c2CSc2ccccc2)cc1 | 11.4%
52 | Cc1ccc(NC(=O)C(C)OC(=O)c2ccc(NC(=O)CC#N)cc2)cc1S(=O)(=O)N1CCOCC1 (centres unmarked) | 4.57%
53 | Cc1ccc(CSc2ncnc3c2cnn3-c2ccccc2)cc1 | 12.1%
